# Laboratory results: the supplement of paper PMC8728848
# The other results are listed elsewhere or left out.
# Key:
# Assay in all cases: glycan array binding signal (z-score within array); higher = stronger binding
# Conditions in all cases: glycan notation: IUPAC condensed, linker removed
# [1] = biological target: Neu5Ac(a2-3)Gal(b1-4)[Fuc(a1-3)]GlcNAc
# How it was run: (§1)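 The Consortium for Functional Glycomics database supplied 3228 glycan arrays, of which those lacking an available protein sequence were dropped. The binding signal, a within-array Z-score, was averaged across arrays of the same protein sequence and across linkers. Negative scores can be read as non-binding.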
# [2] = biological target: Neu5Ac(a2-3)Gal(b1-4)[Fuc(a1-3)]GlcNAc(b1-3)Gal
# How it was run: as §1
# [3] = biological target: Neu5Ac(a2-3)Gal(b1-4)[Fuc(a1-3)]GlcNAc(b1-3)Gal(b1-4)GlcNAc
# How it was run: as §1
# [4] = biological target: Neu5Ac(a2-3)Gal(b1-4)[Fuc(a1-3)]GlcNAc(b1-3)Gal(b1-4)[Fuc(a1-3)]GlcNAc(b1-3)Gal(b1-4)[Fuc(a1-3)]GlcNAc
# How it was run: as §1
# [5] = biological target: Neu5Ac(a2-3)Gal(b1-4)[Fuc(a1-3)]GlcNAc(b1-6)[Gal(b1-3)]GalNAc
# How it was run: as §1
# [6] = biological target: Neu5Ac(a2-3)Gal(b1-4)[Fuc(a1-3)]GlcNAc6S
# How it was run: as §1
# [7] = biological target: Neu5Ac(a2-3)Gal6S(b1-4)GlcNAc
# How it was run: as §1
# [8] = biological target: Neu5Ac(a2-3)Gal6S(b1-4)[Fuc(a1-3)]GlcNAc
# How it was run: as §1
# Neu5Ac(a2-3)GalNAc = biological target: Neu5Ac(a2-3)GalNAc
# How it was run: as §1
# [9] = biological target: Neu5Ac(a2-3)GalNAc(b1-4)GlcNAc
# How it was run: as §1
# [10] = biological target: Neu5Ac(a2-3)[GalNAc(b1-4)]Gal(b1-4)Glc
# How it was run: as §1
# [11] = biological target: Neu5Ac(a2-3)[GalNAc(b1-4)]Gal(b1-4)GlcNAc
# How it was run: as §1
# [12] = biological target: Neu5Ac(a2-3)[Neu5Ac(a2-6)]GalNAc
# How it was run: as §1
# Neu5Ac(a2-6)Gal = biological target: Neu5Ac(a2-6)Gal
# How it was run: as §1
# Neu5Ac(a2-6)Gal(b1-4)Glc = biological target: Neu5Ac(a2-6)Gal(b1-4)Glc
# How it was run: as §1
# [13] = biological target: Neu5Ac(a2-6)Gal(b1-4)GlcNAc
# How it was run: as §1
# [14] = biological target: Neu5Ac(a2-6)Gal(b1-4)GlcNAc(b1-2)Man(a1-3)[Gal(b1-4)GlcNAc(b1-2)Man(a1-6)]Man(b1-4)GlcNAc(b1-4)GlcNAc
# How it was run: as §1
# [15] = biological target: Neu5Ac(a2-6)Gal(b1-4)GlcNAc(b1-2)Man(a1-3)[GlcNAc(b1-2)Man(a1-6)]Man(b1-4)GlcNAc(b1-4)GlcNAc
# How it was run: as §1
# [16] = biological target: Neu5Ac(a2-6)Gal(b1-4)GlcNAc(b1-2)Man(a1-3)[GlcNAc(b1-2)Man(b1-4)GlcNAc(b1-2)Man(a1-6)]Man(b1-4)GlcNAc(b1-4)GlcNAc
# How it was run: as §1
# [17] = biological target: Neu5Ac(a2-6)Gal(b1-4)GlcNAc(b1-2)Man(a1-3)[Neu5Ac(a2-6)Gal(b1-4)GlcNAc(b1-2)Man(a1-6)]Man(b1-4)GlcNAc(b1-4)GlcNAc
# How it was run: as §1
# [18] = biological target: Neu5Ac(a2-6)Gal(b1-4)GlcNAc(b1-2)Man(a1-6)[Gal(b1-4)GlcNAc(b1-2)Man(a1-3)]Man(b1-4)GlcNAc(b1-4)GlcNAc
# How it was run: as §1
# [19] = biological target: Neu5Ac(a2-6)Gal(b1-4)GlcNAc(b1-2)Man(a1-6)[GlcNAc(b1-2)Man(a1-3)]Man(b1-4)GlcNAc(b1-4)GlcNAc
# How it was run: as §1
# [20] = biological target: Neu5Ac(a2-6)Gal(b1-4)GlcNAc(b1-3)Gal(b1-4)GlcNAc
# How it was run: as §1
# [21] = biological target: Neu5Ac(a2-6)Gal(b1-4)GlcNAc(b1-3)Gal(b1-4)[Fuc(a1-3)]GlcNAc(b1-3)Gal(b1-4)[Fuc(a1-3)]GlcNAc
# How it was run: as §1
# [22] = biological target: Neu5Ac(a2-6)Gal(b1-4)GlcNAc6S
# How it was run: as §1
# Neu5Ac(a2-6)GalNAc = biological target: Neu5Ac(a2-6)GalNAc
# How it was run: as §1
# [23] = biological target: Neu5Ac(a2-6)GalNAc(b1-4)GlcNAc
# How it was run: as §1
# Neu5Ac(a2-8)Neu5Ac = biological target: Neu5Ac(a2-8)Neu5Ac
# How it was run: as §1
# [24] = biological target: Neu5Ac(a2-8)Neu5Ac(a2-3)Gal(b1-4)Glc
# How it was run: as §1
# [25] = biological target: Neu5Ac(a2-8)Neu5Ac(a2-3)[GalNAc(b1-4)]Gal(b1-4)Glc
# How it was run: as §1
# [26] = biological target: Neu5Ac(a2-8)Neu5Ac(a2-8)Neu5Ac
# How it was run: as §1
# [27] = biological target: Neu5Ac(a2-8)Neu5Ac(a2-8)Neu5Ac(a2-3)Gal(b1-4)Glc
# How it was run: as §1
# [28] = biological target: Neu5Ac(a2-8)Neu5Ac(a2-8)Neu5Ac(a2-3)[GalNAc(b1-4)]Gal(b1-4)Glc
# How it was run: as §1
# [29] = biological target: Neu5Ac(a2-8)Neu5Ac(a2-8)Neu5Ac(a2-8)Neu5Ac(a2-3)[GalNAc(b1-4)]Gal(b1-4)Glc
# How it was run: as §1
# [30] = biological target: Neu5Ac(b2-6)Gal(b1-4)GlcNAc
# How it was run: as §1
# Neu5Ac(b2-6)GalNAc = biological target: Neu5Ac(b2-6)GalNAc
# How it was run: as §1
# [31] = biological target: Neu5Ac9Ac(a2-6)Gal(b1-4)GlcNAc
# How it was run: as §1
# [32] = biological target: Neu5Gc(a2-3)Gal(b1-3)GlcNAc
# How it was run: as §1
# [33] = biological target: Neu5Gc(a2-3)Gal(b1-3)[Fuc(a1-4)]GlcNAc
# How it was run: as §1
# Neu5Gc(a2-3)Gal(b1-4)Glc = biological target: Neu5Gc(a2-3)Gal(b1-4)Glc
# How it was run: as §1
# [34] = biological target: Neu5Gc(a2-3)Gal(b1-4)GlcNAc
# How it was run: as §1
# [35] = biological target: Neu5Gc(a2-3)Gal(b1-4)[Fuc(a1-3)]GlcNAc
# How it was run: as §1
# [36] = biological target: Neu5Gc(a2-6)Gal(b1-4)GlcNAc
# How it was run: as §1
# Neu5Gc(a2-6)GalNAc = biological target: Neu5Gc(a2-6)GalNAc
# How it was run: as §1
# [37] = biological target: Neu5Gc(b2-6)Gal(b1-4)GlcNAc
# How it was run: as §1
binder,measurement,setting,value
"MUC1-SEA-mFcIgG2a (Homo sapiens), P15941 (SEA domain only) (protein) DAAQPARRAVRSSSELTSEQKLISEEDLSRLVHNGTSARATTTPASKSTPFSIPSHHSDTPTTLASHSTKTDASSTHHSTVPPLTSSNHSTSPQLSTGVSFFFLSFHISNLQFNSSLEDPSTDYYQELQRDISEMFLQIYKQGGFLGLSNIKFRPGSVVVQLTLAFREGTINVHDVETQFNQYKTEAASRYNLTISDASVSDVPFPFSAQSGSDDDDKALEPRGPTIKPCPPCKCPAPNLLGGPSVFIFPPKIKDVLMISLSPIVTCVVVDVSEDDPDVQISWFVNNVEVHTAQTQTHREDYNSTLRVVSALPIQHQDWMSGKEFKCKVNNKDLPAPIERTISKPKGSVRAPQVYVLPPPEEEMTKKQVTLTCMVTDFMPEDIYVEWTNNGKTELNYKNTEPVLDSDGSYFMYSKLRVEKKNWVERNSYSCSVVHEGLHNHHTTKSFSRTPGKHHHHH",glycan array binding signal (z-score),[1],-0.382
same,glycan array binding signal (z-score),[2],-0.375
same,glycan array binding signal (z-score),[3],-0.381
same,glycan array binding signal (z-score),[4],-0.508
same,glycan array binding signal (z-score),[5],1.4
same,glycan array binding signal (z-score),[6],0.354
same,glycan array binding signal (z-score),[7],-0.055
same,glycan array binding signal (z-score),[8],-0.348
same,glycan array binding signal (z-score),Neu5Ac(a2-3)GalNAc,-0.07
same,glycan array binding signal (z-score),[9],-0.601
same,glycan array binding signal (z-score),[10],-0.29
same,glycan array binding signal (z-score),[11],-0.408
same,glycan array binding signal (z-score),[12],-0.035
same,glycan array binding signal (z-score),Neu5Ac(a2-6)Gal,-0.344
same,glycan array binding signal (z-score),Neu5Ac(a2-6)Gal(b1-4)Glc,-0.261
same,glycan array binding signal (z-score),[13],-0.427
same,glycan array binding signal (z-score),[14],-0.245
same,glycan array binding signal (z-score),[15],-0.1
same,glycan array binding signal (z-score),[16],0.253
same,glycan array binding signal (z-score),[17],0.034
same,glycan array binding signal (z-score),[18],-0.32
same,glycan array binding signal (z-score),[19],0.985
same,glycan array binding signal (z-score),[20],-0.465
same,glycan array binding signal (z-score),[21],-0.422
same,glycan array binding signal (z-score),[22],-0.129
same,glycan array binding signal (z-score),Neu5Ac(a2-6)GalNAc,-0.397
same,glycan array binding signal (z-score),[23],-0.459
same,glycan array binding signal (z-score),Neu5Ac(a2-8)Neu5Ac,0.669
same,glycan array binding signal (z-score),[24],-0.51
same,glycan array binding signal (z-score),[25],-0.453
same,glycan array binding signal (z-score),[26],-0.352
same,glycan array binding signal (z-score),[27],-0.328
same,glycan array binding signal (z-score),[28],-0.423
same,glycan array binding signal (z-score),[29],-0.126
same,glycan array binding signal (z-score),[30],-0.324
same,glycan array binding signal (z-score),Neu5Ac(b2-6)GalNAc,-0.159
same,glycan array binding signal (z-score),[31],-0.191
same,glycan array binding signal (z-score),[32],-0.484
same,glycan array binding signal (z-score),[33],-0.12
same,glycan array binding signal (z-score),Neu5Gc(a2-3)Gal(b1-4)Glc,-0.094
same,glycan array binding signal (z-score),[34],-0.41
same,glycan array binding signal (z-score),[35],-0.561
same,glycan array binding signal (z-score),[36],0.128
same,glycan array binding signal (z-score),Neu5Gc(a2-6)GalNAc,-0.307
same,glycan array binding signal (z-score),[37],0.23
